# Reference: the supplement of paper PMC4166925
# ± gives the standard deviation of the averaged measurements. Over roughly 33,000 sequences, “E-score (dimensionless, -0.5 to 0.5)” has its median near -0.049; the highest 2% begin near 0.37. This is one part of the list.
# System: T1, PmTbr T-box DNA-binding domain (GST fusion)
# T1 sequence: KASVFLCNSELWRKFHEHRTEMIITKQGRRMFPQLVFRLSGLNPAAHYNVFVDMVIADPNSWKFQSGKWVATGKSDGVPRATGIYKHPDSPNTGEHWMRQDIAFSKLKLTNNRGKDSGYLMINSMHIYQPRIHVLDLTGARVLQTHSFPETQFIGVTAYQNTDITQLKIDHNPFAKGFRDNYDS
# Test: PBM E-score of 8-mer (E-score (dimensionless, -0.5 to 0.5)); Tbr is Tbrain of the sea star Patiria miniata (Pm) or the sea urchin Strongylocentrotus purpuratus (Sp); higher = stronger binding preference; most listed sequences are background and not binding sites
# Settings: the construct has about 5 more residues each side
# Procedure: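 Universal protein-binding microarray (Agilent AMADID 016060, 60-bp probes with a 35-bp variable region) incubated with 200 nM GST-fused Patiria miniata Tbr T-box DNA-binding domain (residues 272-466) in PBS pH 7.5. Scored for every ungapped 8-mer (given with its reverse complement) by the Universal PBM Analysis Suite as E-score (modified Wilcoxon-Mann-Whitney enrichment, range -0.5 to 0.5; >0.45 counts as bound) and Z-score of median probe intensity. Two replicate arrays (datasets 1 and 2).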
row,Sequence,PBM E-score of 8-mer
1,GGCGCCGA,0.146 ± 0.08
2,AACGAACA,-0.0901 ± 0.0097
3,AGCCTGCC,-0.0173 ± 0.019
4,TCCAAAAA,-0.158 ± 0.061
5,CAACGTCA,0.0459 ± 0.035
6,GAGACCGA,-0.0758 ± 0.029
7,AGTGACCG,-0.0399 ± 0.021
8,GCCTAGGC,-0.0856 ± 0.14
9,ACGTCTAG,-0.118 ± 0.028
10,CCTGGCTC,-0.0752 ± 0.086
11,ACTCACGG,0.0497 ± 0.064
12,CCGACGAA,0.0364 ± 0.0036
13,ACCGTGGA,0.0623 ± 0.014
14,CAGTAAGA,-0.152 ± 0.0051
15,AGTGGTGC,0.141 ± 0.044
16,AGGTGAGC,0.303 ± 0.042
17,ACCCCCTG,0.0477 ± 0.028
18,GCCTGACC,-0.0775 ± 0.032
19,GTCAACCA,0.0402 ± 0.067
20,ATGACGAC,0.15 ± 0.029
21,CGTCATTA,-0.079 ± 0.066
22,AACCAACA,0.0696 ± 0.053

row,Sequence,PBM E-score of 8-mer
1,CGTTTATC,0.158 ± 0.03
2,ATCATCCC,-0.119 ± 0.03
3,ACTAAACA,0.0222 ± 0.01
4,ATAGTGGG,-0.0524 ± 0.0065
5,ACCACGCG,0.1217 ± 0.0011
6,CGCGTGGA,0.148 ± 0.055
7,CGTGGCAG,0.00281 ± 0.052
8,GTTAGGGA,-0.0525 ± 0.1
9,GGATCTGA,-0.208 ± 0.0052
10,ACCCTGAC,0.106 ± 0.017
11,ATTCGTCA,0.262 ± 0.0094
12,AGTATCTA,-0.127 ± 0.0036
13,CCTTAGGC,-0.0445 ± 0.043
14,AGTGTGCG,0.222 ± 0.014
15,ACGATTCC,0.101 ± 0.02
16,ATGGTGTC,0.383 ± 0.02
17,ATGGTATC,-0.126 ± 0.02
18,GTTATTGA,-0.00208 ± 0.026
19,CAATGGGA,-0.147 ± 0.033
20,CGCCTAGA,0.072 ± 0.015
21,CATAGGCA,-0.278 ± 0.051
22,GGGAAGTA,-0.149 ± 0.047

row,Sequence,PBM E-score of 8-mer
1,TCCCCGAA,-0.125 ± 0.0032
2,GGTCCTAA,-0.119 ± 0.018
3,CAATCGCA,0.14 ± 0.014
4,ACGACTCA,-0.0401 ± 0.03
5,CCGCTGTA,-0.093 ± 0.022
6,CGCCCACG,-0.0848 ± 0.045
7,GACGCATC,-0.0679 ± 0.071
8,GTCACTTA,0.332 ± 0.004
9,ATGGGCCG,-0.263 ± 0.12
10,TTAATTAA,-0.0918 ± 0.023
11,AAGATTAT,-0.134 ± 0.074
12,GATTATTA,-0.231 ± 0.024
13,AATTTAGA,-0.0662 ± 0.0039
14,CCGGGTCC,0.057 ± 0.013
15,TAATACAA,-0.134 ± 0.03
16,GTTGCAGA,-0.0155 ± 0.071
17,TTCTACAA,-0.175 ± 0.048
18,TCCCTTAA,-0.205 ± 0.016
19,TAGGTATA,0.149 ± 0.0083
20,GAATGGAC,-0.094 ± 0.052
21,CCGTATTA,-0.19 ± 0.055
22,AAATATGC,0.0237 ± 0.036

row,Sequence,PBM E-score of 8-mer
1,AAATCCCA,0.0132 ± 0.0089
2,CCAACCGC,0.00658 ± 0.07
3,TCCGCCCA,-0.0159 ± 0.029
4,GGTGGCTA,-0.0916 ± 0.029
5,CTTAAATC,-0.187 ± 0.024
6,TCAAGTAA,-0.0858 ± 0.011
7,GCGTTCAA,-0.0538 ± 0.058
8,ATAAGCCG,-0.203 ± 0.05
9,CTCGTTCA,-0.07 ± 0.028
10,CCTAAAAA,-0.0118 ± 0.025
11,TGGCAAAA,0.159 ± 0.09
12,CCAGTTAC,-0.123 ± 0.016
13,ATCCCAGG,-0.24 ± 0.014
14,ACGAAGTG,0.291 ± 0.018
15,ACAATTAT,-0.0222 ± 0.044
16,ATTTGTGG,0.094 ± 0.012
17,ACCAGACT,-0.253 ± 0.038
18,ATCAACTG,-0.0549 ± 0.035
19,ACAGCCTA,0.104 ± 0.047
20,GCCGTTAA,0.0119 ± 0.0044
21,AAGAGGTC,-0.101 ± 0.02
22,CTTTGCAC,0.196 ± 0.0043

row,Sequence,PBM E-score of 8-mer
1,ACATAGCG,-0.0152 ± 0.1
2,GCATCCTA,-0.0162 ± 0.044
3,CAGGAGAC,-0.136 ± 0.017
4,CCCCTATC,-0.173 ± 0.019
5,GAAGAGCC,-0.131 ± 0.032
6,AGTCCGTA,-0.192 ± 0.003
7,ATATAGTG,0.0284 ± 0.13
8,ACCGCACG,0.0344 ± 0.016
9,ACTCGCAC,0.4 ± 0.0077
10,AATGTTCC,-0.191 ± 0.0029
11,CCCGTCGG,0.0757 ± 0.044
12,GTTCACTA,-0.161 ± 0.041
13,CAATTGCG,0.118 ± 0.018
14,GCCCCAAC,0.0939 ± 0.034
15,AGGTCATC,-0.0529 ± 0.04
16,AAAGGTTC,-0.0764 ± 0.11
17,TCAGTGCA,-0.123 ± 0.065
18,CTTGGTCC,-0.24 ± 0.053
19,CACAACAG,0.161 ± 0.033
20,AGAATACG,-0.106 ± 0.028
21,AAGGGAAG,-0.246 ± 0.025
22,CAGCAGGA,-0.188 ± 0.021
